According to PubChem BioAssay AID488969 (Vanderbilt High Throughput Screening Facility, 2010):
In all, about 110,000 compounds were measured (“z-score”: median about -0.1, highest 2% from about 2 on). The list shows a part of the results.

Target: Metabotropic glutamate receptor 8 (Rattus norvegicus) (UniProt P70579)
Assay: rat mGluR8 modulators via GIRK flux, primary screen, cell-based, thallium flux, HTS (AID 488969)
Settings: HEK293 rat mGluR8, GIRK (G protein-gated inwardly rectifying potassium channel) thallium flux, FluoZin2; at 10 µM; stronger effect = higher value; submaximal glutamate (EC20) added with thallium

Chain of UniProt P70579 (P70579 whole entry, looked up): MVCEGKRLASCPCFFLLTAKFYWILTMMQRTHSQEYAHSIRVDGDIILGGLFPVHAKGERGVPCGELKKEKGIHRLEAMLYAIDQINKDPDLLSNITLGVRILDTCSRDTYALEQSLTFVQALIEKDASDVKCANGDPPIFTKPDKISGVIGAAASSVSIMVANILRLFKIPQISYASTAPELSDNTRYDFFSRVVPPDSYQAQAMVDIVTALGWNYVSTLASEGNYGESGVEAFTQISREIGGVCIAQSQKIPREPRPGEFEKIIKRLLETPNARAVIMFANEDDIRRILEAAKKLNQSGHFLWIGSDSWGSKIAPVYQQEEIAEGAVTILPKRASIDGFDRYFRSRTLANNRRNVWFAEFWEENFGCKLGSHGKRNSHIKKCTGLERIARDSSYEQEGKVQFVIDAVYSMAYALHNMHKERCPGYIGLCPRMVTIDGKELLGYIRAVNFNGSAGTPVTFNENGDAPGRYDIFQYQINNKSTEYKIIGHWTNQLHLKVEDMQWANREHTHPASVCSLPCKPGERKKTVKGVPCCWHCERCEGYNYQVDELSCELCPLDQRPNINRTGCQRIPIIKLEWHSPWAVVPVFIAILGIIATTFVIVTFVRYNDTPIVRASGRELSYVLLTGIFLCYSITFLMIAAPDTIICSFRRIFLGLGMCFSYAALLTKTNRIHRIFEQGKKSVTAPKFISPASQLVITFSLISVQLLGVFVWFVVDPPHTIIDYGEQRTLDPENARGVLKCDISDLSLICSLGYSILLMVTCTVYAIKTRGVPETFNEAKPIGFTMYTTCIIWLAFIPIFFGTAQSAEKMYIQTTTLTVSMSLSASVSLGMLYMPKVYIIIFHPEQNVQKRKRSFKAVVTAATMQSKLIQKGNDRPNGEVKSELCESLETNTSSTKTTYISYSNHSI

| SMILES | z-score |
| --- | --- |
| CCCCCCc1nnc(N)s1 | -0.267 |
| CC(C)C1C(C#N)=C(N)Oc2n[nH]c(C(C)(C)C)c21 (centres undefined) | 0.628 |
| CCCC(=O)Nc1ccc(Cl)c(NC(=O)c2ccco2)c1 | -0.898 |
| Cc1ccc(Cn2c(C)cc3c(c2=O)C(c2cccs2)C(C#N)=C(N)O3)cc1 (centres undefined) | -0.161 |
| c1ccc(Nc2nc(-c3ccncc3)cs2)nc1 | -0.655 |
| CSc1ccc(Cl)c(C(=O)OCC(=O)NC2CC2)c1 | -0.245 |
| O=C(c1ccccc1)N1CCN(C(=O)c2ccc(OC(F)(F)F)cc2)CC1 | 0.408 |
| CCc1cccc(NC(=O)C2CCCC2)c1 | 0.366 |
| CCC(=O)N1c2ccc(S(=O)(=O)CCC(=O)Nc3nccs3)cc2CC1C (centres undefined) | -0.207 |
| COc1ccc(NC(=O)CSc2ccc3c(c2)OCCO3)cc1OC | 0.00831 |
| O=C(NCc1ccco1)c1cccn2c(=O)c3sccc3nc12 | -1.77 |
| CCc1ccc(/C=C/C(=O)c2ccc(N3CCOCC3)cc2)cc1 | 0.286 |
| O=S(=O)(c1cccc2nsnc12)N1CCN(c2ncccn2)CC1 | -0.0743 |
| CC1(C)CC(=O)C(C=NCCN2CCN(CCCCS(=O)(=O)O)CC2)=C(O)C1 | -0.0822 |
| COc1ccc(Br)cc1/C=N/Nc1cccc(C(=O)O)c1 | -0.59 |
| COC(C(=O)Nc1ccc(S(=O)(=O)N2CCCCC2)cc1)c1ccccc1 (centres undefined) | -1.67 |
| O=C(Nc1nc(-c2cccc(Br)c2)cs1)Oc1ccccc1 | -0.0227 |
| COc1ccc(-c2cc(C(=O)Nc3ccc(C)cc3)no2)cc1 | 0.77 |
| Cc1ccc2nc(-c3ccc(NC(=O)CCN4C(=O)c5ccccc5C4=O)cc3)sc2c1 | 0.075 |
| Cc1cc(NC(=O)CSc2nnc3c(C)cc4c(C)ccc(C)c4n23)no1 | 1.03 |
| Cn1c(=O)[nH]c(=O)c2c1nc(NCCCO)n2CCCc1ccccc1 | 0.0396 |
| COc1cccc(/C=N/NC(=O)C(=O)NCc2cccnc2)c1 | -0.185 |
| O=C1c2cccc(Cl)c2C(=O)c2c1cccc2N1CCCC1 | -0.316 |
| COc1cccc(-c2nc3ccccc3c(=O)o2)c1 | -0.323 |
| Cc1cc(Cl)c(S(=O)(=O)N(C)C)cc1OCC(N)=O | 0.291 |
| Cc1cc(C)c(N(C(=O)CN2C(=O)c3ccccc3S2(=O)=O)C(C(=O)NCC2CCCO2)c2ccc(F)cc2)c(C)c1 (centres undefined) | -0.14 |
| Cc1noc(NS(=O)(=O)c2ccc(NC(=O)CCC3CCCCC3)cc2)c1C | 0.14 |

| SMILES | z-score |
| --- | --- |
| CCOC(=O)c1c(C)n(C)c2cc(-c3ccc(F)cc3)c(O)cc12 | -0.428 |
| O=CN1CCN(C(=O)c2ccccc2F)CC1 | -0.00956 |
| Cc1cccc(NC(=O)COc2ccc3oc4c(c3c2)CCCC4)n1 | -0.0747 |
| O=C(Nc1ccccc1)c1ccc(S(=O)(=O)N2CCCCC2)cc1 | -0.0563 |
| O=C(NCC1CCCO1)C(c1cccs1)N(Cc1cccs1)C(=O)Cn1nnc(-c2cccs2)n1 (centres undefined) | -0.109 |
| COc1ccccc1Nc1ncc(-c2cccs2)s1 | 1.05 |
| CCCNc1ccc(S(=O)(=O)N(CC)CC)cn1 | 0.00468 |
| CC(C)Sc1n[nH]c2nc3c(c(=O)n12)C1(CCCC1)Cc1ccccc1-3 | -0.433 |
| OC(Cn1nnc2ccccc21)Cn1c(C(F)(F)F)nc2ccccc21 (centres undefined) | 1.03 |
| O=C(CC1(O)C(=O)N(Cc2cccc3ccccc23)c2ccccc21)c1cccnc1 (centres undefined) | -1.19 |
| Cc1cc(OC(F)F)ccc1NC(=O)Nc1ccc([N+](=O)[O-])cc1 | -0.185 |
| Cc1ccccc1Cn1ccc(=NCc2ccccc2)cc1 | -0.0134 |
| Cc1nc2c3ccccc3nc(NNC(=O)CCC(=O)NC(C)C)n2n1 | 0.0536 |
| CCCCN1C(=O)CC(Sc2ccccc2C(=O)O)C1=O (centres undefined) | -0.231 |
| O=C1CCc2cc(S(=O)(=O)N3CCC(C(=O)NCCC4=CCCCC4)CC3)ccc2N1 | 0.0449 |
| COc1ccccc1OCCSc1nnnn1-c1ccc(C)cc1 | -0.505 |
| CCOC(=O)Nc1ccc(S(=O)(=O)Nc2cc(C)nc(C)n2)cc1 | -0.12 |
| CC(=O)c1ccc(NC(=O)C2CC(=O)N(Cc3ccccc3)C2)cc1 (centres undefined) | 0.0516 |
| O=C(COC(=O)C(Cc1ccccc1)NC(=O)c1ccc(Cl)cc1)c1ccc(Cl)cc1 (centres undefined) | -0.0652 |
| CC(C)(C)n1nc2c(c1NC(=O)c1ccccc1F)CS(=O)C2 (centres undefined) | -0.492 |
| CC(C)(C)NS(=O)(=O)c1ccc(NC(=O)NC2CCCCC2)cc1 | -0.173 |
| CCOc1cc(NC(=S)Nc2cccc(OC)c2)c(OCC)cc1NC(=O)C(C)C | 0.0299 |
| Cc1nnc(SCC(=O)Nc2sc3c(c2C#N)CCCC3)[nH]c1=O | -0.29 |
| Cc1ccc(C(C)C)c(OCC(=O)NN=C2CCCCCCC2)c1 | -0.223 |
| N#Cc1ccc(NC(=O)COC(=O)C2Cc3ccccc3CN2C(=O)c2ccccc2)cc1 (centres undefined) | -0.202 |
| COc1ccc(NC(=O)c2cc(S(=O)(=O)N(Cc3ccccc3)c3ccccc3)ccc2Cl)cn1 | -0.258 |
| Cc1c([N+](=O)[O-])cc(C(=O)Nc2ccc(Cc3ccncc3)cc2)cc1[N+](=O)[O-] | -0.015 |
